The whole screen tested about 310,000 compounds, of which about 14,000 (4.5%) showed an effect of 50% or more. Effects have a minus sign here. The list shows a part of the results.
The molecules below were run against human ether-à-go-go-related gene (hERG) potassium channel (human, UniProt Q12809) (assay: primary screen, population patch clamp on CHO cells stably expressing hERG).
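Note: peak tail current of the secondary pulse compared with the same well before compound.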

Chain of human ether-à-go-go-related gene (hERG) potassium channel (Q12809 whole entry, looked up): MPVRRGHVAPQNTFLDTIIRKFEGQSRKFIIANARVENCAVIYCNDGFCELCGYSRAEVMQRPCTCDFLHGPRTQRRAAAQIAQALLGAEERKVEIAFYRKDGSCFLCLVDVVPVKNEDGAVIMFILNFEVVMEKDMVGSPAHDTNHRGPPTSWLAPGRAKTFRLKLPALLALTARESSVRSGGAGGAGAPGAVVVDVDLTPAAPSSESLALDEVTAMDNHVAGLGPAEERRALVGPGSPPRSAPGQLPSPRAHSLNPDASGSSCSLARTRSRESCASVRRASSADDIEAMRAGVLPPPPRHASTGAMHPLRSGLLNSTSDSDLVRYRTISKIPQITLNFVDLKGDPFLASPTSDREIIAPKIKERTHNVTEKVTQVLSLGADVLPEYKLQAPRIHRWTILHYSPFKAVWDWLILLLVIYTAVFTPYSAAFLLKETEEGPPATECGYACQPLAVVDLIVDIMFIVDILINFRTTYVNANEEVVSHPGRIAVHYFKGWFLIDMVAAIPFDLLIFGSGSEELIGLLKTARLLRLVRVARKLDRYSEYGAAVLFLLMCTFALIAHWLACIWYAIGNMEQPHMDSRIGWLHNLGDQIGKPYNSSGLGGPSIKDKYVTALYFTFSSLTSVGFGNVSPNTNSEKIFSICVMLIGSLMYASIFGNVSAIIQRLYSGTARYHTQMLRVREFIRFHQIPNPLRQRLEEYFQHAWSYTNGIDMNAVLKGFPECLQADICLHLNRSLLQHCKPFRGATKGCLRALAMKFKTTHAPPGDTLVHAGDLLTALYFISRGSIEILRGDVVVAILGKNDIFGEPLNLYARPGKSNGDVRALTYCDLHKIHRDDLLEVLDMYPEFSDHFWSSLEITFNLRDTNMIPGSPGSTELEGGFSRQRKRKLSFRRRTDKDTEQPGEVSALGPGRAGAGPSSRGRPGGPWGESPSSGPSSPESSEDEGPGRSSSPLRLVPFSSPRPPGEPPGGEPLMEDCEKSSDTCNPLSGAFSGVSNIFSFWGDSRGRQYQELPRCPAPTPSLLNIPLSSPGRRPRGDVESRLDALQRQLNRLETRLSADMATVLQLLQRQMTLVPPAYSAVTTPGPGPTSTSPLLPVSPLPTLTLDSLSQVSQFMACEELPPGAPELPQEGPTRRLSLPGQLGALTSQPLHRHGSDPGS

SMILES | hERG current change (%, negative = inhibition) at 10uM [%]
COC(=O)C1=C(c2ccc(F)cc2OCc2ccccc2)C[C@@H]2CC[C@H]1N2C(=O)NCCN1CCOCC1 | 7.9
CN(CCO)S(=O)(=O)c1ccc2c(c1)C(=NN)c1cc(S(=O)(=O)N(C)CCO)ccc1-2 | 9.76
CCOC(CNC(=O)CCc1c(C)nc2ncnn2c1C)OCC | 14
CCCc1cc(=O)oc2cc(OCC(=O)Nc3ccc4c(c3)OCCO4)ccc12 | 6.15
COc1ccc(/C=C/C(=O)Nc2nc(C)c(C(=O)N(C)C)s2)cc1 | 3.15
COc1ccc(C(=O)ON=C2c3ccccc3-c3ccccc32)cc1OC | 18.2
CCOC(=O)NC(=O)CN1C(=O)NC(C)(c2ccccc2)C1=O (stereo not drawn) | -4.44
O=C(CSc1nc2ccccc2nc1N1CCCC1)Nc1ccc(Cl)cc1 | -19.8
Cc1c(OCC(=O)NCCCn2ccnc2)ccc2c3c(c(=O)oc12)CCCC3 | -48.2
CCN(CC(=O)NCc1ccc(F)cc1)C(=O)CN1CCN(c2ccccc2OC)CC1 | -61.4
c1ccc2c(c1)CCN(c1ncnc3c1[nH]c1ccccc13)C2 | -18.1
O=c1c(N2CCOCC2)nsn1Cc1ccccc1 | -4.28
O=C(Nc1ccc(Cl)cc1)OCCn1nnnc1C(c1ccccc1Cl)N1CCOCC1 (stereo not drawn) | -24.9
COc1ccc(CCNC(=O)COC(=O)COc2ccc(C#N)cc2)cc1 | 6.71
CCCCC[n+]1ccn(C2=C([O-])c3ccccc3C(=O)/C2=N\S(=O)(=O)c2ccc(Br)cc2)c1 | -39.1
CCn1c(SCC(=O)c2ccccc2)nc2ccccc2c1=O | 4.47
CC1CCCN(Cc2c(O)ccc3c2O/C(=C\c2ccco2)C3=O)C1 (stereo not drawn) | -4.24
CCOC(=O)CN1C(=O)N[C@@H](CCc2ccccc2)[C@@H](C(=O)OC)[C@H]1C | 14.5
CCOc1ccccc1N(CC(=O)NC(C)(C)C)C(=O)Cn1nnc(-c2ccc(C)o2)n1 | -16
Cc1ccc(-n2ncc(C(=O)NC3CC3)c2C2CCN(C(=O)OC(C)(C)C)CC2)cc1 | 4.64

SMILES | hERG current change (%, negative = inhibition) at 10uM [%]
CC(=O)Nc1ccccc1NS(=O)(=O)c1cccc([N+](=O)[O-])c1 | 17.6
Cc1c(NC(=O)CSc2n[nH]c(-c3ccccc3)n2)c(=O)n(-c2ccccc2)n1C | 3.93
CCN(CC(=O)NCc1ccc(Cl)cc1)C(=O)C1CCN(S(=O)(=O)c2ccc(OC)c(OC)c2)CC1 | -17
COc1ccc2cc3cc(C(=O)N4CCN(Cc5ccc6c(c5)OCO6)CC4)oc3nc2c1 | -4.89
O=c1[nH]c(=O)n(CCc2ccc(F)cc2)c(O)c1C=NCCCn1ccnc1 | -3.22
COc1cc(NC(=O)CSc2ccc(-c3cccnc3)nn2)cc(OC)c1 | 7.83
O=C(/C=C/c1ccc([N+](=O)[O-])cc1)NCCN1C(=O)S/C(=C\c2ccc(F)cc2)C1=O | 8.85
CCCCOc1ccc(S(=O)(=O)n2c(C)nc3ccccc32)cc1 | 0.0246
Cc1noc(C)c1COc1ccc(C(=O)Nc2nnc(CC(C)C)s2)cc1 | 6.16
CCCc1cc(=O)n2[nH]c(C)c(-c3ccc(Cl)cc3)c2n1 | -46.9
Cc1cc(C)nc(SCC(CSc2nc(C)cc(C)n2)C(=O)O)n1 | 18.9
CCOC(=O)C1=C(C)N(C)C(=S)NC1c1ccccc1 (stereo not drawn) | -10
COc1cc(C(=O)OCCn2c(=O)c3c(ncn3CCN(C)C)n(C)c2=O)cc(OC)c1OC.Cl | -2.6
O=C(Nc1ccc(F)cc1F)NC1CCN(Cc2c(F)cccc2Cl)CC1 | -0.0524
CCN(Cc1ccc(OC)c(F)c1)C(=O)c1oc2ccccc2c1COC | -54.6
CCc1nccn1S(=O)(=O)c1cc(C)c(OC)cc1C | -2.37
O=C(NC1CCCCC1)C(c1ccc(F)cc1)N(Cc1ccco1)C(=O)c1csnn1 (stereo not drawn) | 7.65
O=C(O)c1ccc[n+](Cc2ccc([N+](=O)[O-])cc2)c1.[Br-] | 8.97
CC1CCC(N2CCN(C(=O)COc3ccccc3)CC2)CC1.O=C(O)C(=O)O (stereo not drawn) | -31.4
